Test results published in a collection of fitness landscapes (doi:10.1016/j.celrep.2020.107928).
Over roughly 81,000 sequences, “one-hybrid fitness for binding NBS DNA” has its median near -0.1; the highest 2% begin near 0.36. The list shows a part of the results.

B1: Caulobacter ParB omega fusion; a variant is named by its letters at X, in order, B8GW30 (parent)
chain: MESVVVGEPGMSEGRRGLGRGLSALLGEVDAAPAQAPGEQLGGSREAPIEILQRNPDQPRRTFREEDLEDLSNSIREKGVLQPILVRPSPDTAGEYQIVAGERAWRAAQRAGLKTVPIMVRELDDLAVLEIGIIENVQRADLNVLEEALSYKVLMEKFERTQENIAQTIGKSXSHVANXMRLLXLPDEVQSYLVSGELTAXHARAIAAAADPVALAKQIIEGGLSVRETEALARKAPNLSAGKSKGGRPPRVKDTDTQALESDLSSVLGLDVSIDHRGSTGTLTITYATLEQLDDLCNRLTRGI

Variants of: B1
Assay: one-hybrid fitness for binding NBS DNA (the Noc-binding site; scaled: cognate 1, non-cognate 0); higher = stronger binding
Details: with NBS DNA site
In short: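 Values were rescaled so that cognate is 1 and non-cognate is 0. Each is a fitness, the log change in a variant's read ratio to wild type from Illumina reads of plasmids before and after selection, with three replicate libraries pooled and variants under 10 reads dropped. Selection of the Caulobacter ParB libraries, four specificity codons randomised, used E. coli USO with a HIS3 reporter, site 19 bp from the promoter, on M9-minus-histidine with 0.1 mM IPTG and 5 mM 3-AT for 48 hours at 37°C.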

one-hybrid fitness for binding NBS DNA, 0.366:
QRSC

one-hybrid fitness for binding NBS DNA, 0.208:
RHKK

one-hybrid fitness for binding NBS DNA, 0.491:
RTMT

one-hybrid fitness for binding NBS DNA, 0.305:
QYQA

one-hybrid fitness for binding NBS DNA, 0.331:
RRYG

one-hybrid fitness for binding NBS DNA, 0.279:
RRFG

one-hybrid fitness for binding NBS DNA, 0.311:
QIST

one-hybrid fitness for binding NBS DNA, 0.222:
QCQH

one-hybrid fitness for binding NBS DNA, 0.522:
RTYR

one-hybrid fitness for binding NBS DNA, ≤ 0.2:
LKVT
MNYG
CPSW
QWVC
EERG
IMIV
DRGN
KREI
NLSD
CTYL
TTNL
YKDD
VEAS
MHQR
PAEG
CSRT
PLHK
RYSC
ATLC
DQKR
WVHR
WTCR
FLPQ
PGFV
CYAV
KMPL
TCKH
LPVN
AANR
ITAR
DEFG
DEYC
KLWS
LCSS
RNQQ
WKRS
FRHV
NYIR
DELR
AAIV
YTSW
GHRV
KCAG
SVMC
QVQG
IDTL
ILVR
SRNG
HQEA
IPIS
IQFM
DLKL
IGDN
ARWW
PLWV
RHYC
HKLT
SGKC
MNHS
MSHI
WCDT
VNGN
AKHR
ILPG
NYAR
NDTS
SQDF
RYHA
HMVC
SPVV
QWHV
MNQR
TLGT
KFPG
AISE
GLLH
CRLL
MYTR
FWRW
GVYR
CTNG
HWEI
TSSC
IGHC
TNMV
VSPT
HDDG
SIWA
TESL
GCKP
SNPM
LRTA
SAFT
PLQS
SWGR
MRGG
EFAT
QASC
KCSL
SRTH
CMTT
PGME
ISRH
PMTS
AHML
ILTI
YHPA
RVLN
ILRT
NMDL
ANMT
PYTS
ARWS
SMEP
EMVL
QQSN
LHTQ
MITT
LYTC
TERA
VITT
RLYQ
TKAW
TKSN
RGVH
WHRS
LETF
YNLA
PFIT
QGLC
LPRM
DWDR
DLIM
GLKY
GMGG
IDLG
LNEC
RAQI
KNTM
NTKG
NALI
NKAT
GFPN
PLLH
GLEG
QTYE
RAEY
PTFN
AKCH
VVRF
RLEK
CFNR
MVAT
KSQF
MSLS
VQNS
SDHA
LLMV
WMSS
EPEL
CVGT
HVQC
TCVL
STCL
YQNS
AHRS
TARV
NKHS
TRLL
LKNF
TNYM
QSEY
RTPH
SIVT
YVFT
MAQR
VADM
VAER
LVVF
FMAS
AVEG
LDQR
EKHY
VCPC
TTFS
QNCN
GIVG
PQND
EFRY
QQDK
MSVG
LLAI
ASAS
GHQR
YALC
NALA
MPRS
LCVN
YVET
VANS
RVAF
PQWG
RNCG
ALPE
SEDR
HKNP
VTCK
QWTM
SNGA
NAIM
DFHC
WDRG
YIYR
AHPQ
YVSS
YISW
PETA
KNDG
CTNA
SNNL
RNNW
ARRQ
KTKW
SDPL
KIRY
SMRT
IMHC
EKSD
QSFY
RAGC
RDHK
HSQL
HRSN
FPLS
TFIS
RAES
MGID
VVDR
VDKH
RINW
DWKY
HYFN
GYEP
PRGL
IGRT
SCGI
YYNT
GCQS
TIFC
IASM
TACE
PMTT
LAMD
LWRC
RMVI
REVV
HGIR
YNSM
RSWY
NEPI
GIIN
PENS
CNKS
SVQA
PLET
RYII
SYPR
YPRS
AHVS
NESN
SQTR
AIHR
EWYV
NCMW
TNQC
YFER
PPSQ
GPNR
TPDP
NLFY
RFMY
PSLP
ATGY
TERN
KYET
LRTR
KVDW
FGLG
QEPT
PEMY
DGHG
TARQ
PWFS

one-hybrid fitness for binding NBS DNA, 0.378:
RRTY

one-hybrid fitness for binding NBS DNA, 0.204:
RYDT

one-hybrid fitness for binding NBS DNA, 0.218:
QRVK

one-hybrid fitness for binding NBS DNA, 0.264:
YVPR
